Reference: PubChem BioAssay AID686971 (National Center for Advancing Translational Sciences (NCATS), 2013)
Where “and” joins values, the source holds several entries; their conditions need not be identical. Identical values can stand only once. Hit rate of the full screen: of about 360,000 compounds, about 7,500 (2.1%) were called active. The inconclusive results got no clear call from the source; some entries with a clear call stand among them for comparison. Calls follow the shape of the dose curve; as a rule, active = well fitted cell-killing curve with a large enough effect; inconclusive = small, poorly fitted or top-dose-only effect, or effect the other way, or another doubt; inactive = no such curve, though single readings can be large or run the other way. A potency beside an inconclusive call is a rough fit, not a confirmed value.

Experiment: qHTS for induction of synthetic lethality in tumor cells producing 2HG: qHTS for the HT-1080-IDH1KD cell line;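 as to activity, negative = toxicity: 0% = DMSO wells and -100% = cell-free medium wells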
Conditions: HT-1080 IDH1 knockdown viability, ATP luminescence, 48 h; activity, negative = toxicity: at 46.1 µM (top of the series) unless noted
Outline: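 Cytotoxicity counter-line: IDH1KD HT-1080, 48 h, CellTiter-Glo. Curves classed by r2, magnitude and activity.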
Potency is read from the fitted curve at half-maximal effect; tags tell the direction and shape of the fitted curve.

Compound	Potency	activity, negative = toxicity
COc1ccc(CCCNC(=O)C2(C)Cc3c(-c4ccc5c(c4)OCO5)ccnc3O2)cc1 (centres undefined)	inconclusive: 4.11 µM [cytotoxic, full curve]	
C=CCn1c(=S)[nH]c2sc3c(c2c1=O)CCC3	inconclusive: 6.31 µM [cytotoxic, single point]	
CCc1ccc(Nc2ncc3c(n2)CC(c2ccc(OC)cc2)CC3=O)cc1 (centres undefined)	inconclusive: 29.1 µM [cytotoxic, single point]	
CCN(c1cccc(C)c1)S(=O)(=O)c1cn(CC(=O)OC)c2ccc([N+](=O)[O-])cc12	inactive	
Cn1cc(C(=O)c2ccc(Cl)cc2Cl)cc1C(=O)N/N=C(\N)COc1ccc(Cl)cc1	active: 16.4 µM	
CN1CCC(=O)N([C@H](CSc2ccccc2)c2ccccc2)CC1	inactive	
CCC(=O)N1Cc2cc(C(=O)Nc3nccs3)nc(-c3cccc(-c4ccccc4OC)c3)c2[C@@H]1CCO	inactive	
CC1=C(C(=O)N(C(C)C)C(C)C)CC(CC(=O)NCc2cccc3ccccc23)C(=O)N1Cc1ccc(F)cc1 (centres undefined)	inconclusive: 29.1 µM [cytotoxic, single point]	
CC1=NN(C(=O)COc2cc(C)ccc2C(C)C)C(O)(c2ccccc2)C1 (centres undefined)	inconclusive: 18.4 µM [cytotoxic, single point]	
COCCN(C(=O)Cc1cccs1)C(C(=O)NCc1ccc(OC)cc1)c1ccc(C(C)C)cc1 (centres undefined)	inconclusive: 35.5 µM [cytotoxic, single point]	
CCOc1cc(CNc2ccc(Br)cc2)cc(Br)c1OCC(=O)NC(C)(C)C	inconclusive: 25.1 µM [cytotoxic, single point]	
O=C(O)Cn1c(SCCOc2ccc(Cl)cc2)nc2ccccc21	inactive	
Cc1cc(C(=O)Nc2c(C)nn(Cc3c(Cl)cccc3Cl)c2C)no1	inconclusive: 10 µM [cytotoxic, single point]	
O=C(Nc1nnc(SCc2ccccc2Cl)s1)C1COc2ccccc2O1 (centres undefined)	inactive	
CCCn1c(-c2cccs2)nc2nc3ccccc3nc21	inactive	
CCCC(C)Sc1nc2c([nH]1)c(=S)n(C)c(=O)n2C (centres undefined)	inactive	
C/C(=N\NC(=O)C1(C)CC1(Br)Br)c1ccc(NC(=O)c2ccc(C)o2)cc1 (centres undefined)	inactive	
O=C(CN(C(=O)c1ccccc1Cl)C1CCCCC1)Nc1ccc(Cl)c([N+](=O)[O-])c1	inconclusive: 18.4 µM [cytotoxic, single point]	
O=C(Nc1ccc(F)cc1)C(CCc1ccccc1)N1CCN(c2cccc(C(F)(F)F)n2)CC1 (centres undefined)	inconclusive: 20.6 µM [cytotoxic, single point]	
CC(=O)NC1=NN(C(C)=O)C(C)(c2ccccc2)S1 (centres undefined)	active: 7.08 µM	
COc1ccc(C)cc1S(=O)(=O)Nc1ccc2c(c1)OCCO2	inactive	
CCOC(=O)c1sc(=NC(=O)c2ccc(OC)c(OC)c2)n(C)c1C	inconclusive: 17.8 µM [rising, single point]	
COC(=O)[C@@]12C[C@@H](CC(=O)NCc3cccc4ccccc34)C(=O)N(Cc3ccco3)C1=CCC(C)(C)C2	inconclusive: 29.1 µM [cytotoxic, single point]	

Compound	Potency	activity, negative = toxicity
COc1ccc(Nc2c3c(c(C#N)c4nc5ccccc5n24)CCC3)cc1	inactive	
CC(=O)Nc1ccc(S(=O)(=O)N2CCC(C(=O)NCc3cccnc3)CC2)cc1	inconclusive: 23.1 µM [rising, single point]	
Nc1nc2c(ncn2[C@H]2C[C@H](O)[C@@H](CO)O2)c(=O)[nH]1	inconclusive: 20.6 µM [cytotoxic, single point]	
Cc1ccc(COC[C@H](CC(C)C)N2CCN(C(=O)c3cccc(C(F)(F)F)c3)CCC2=O)cc1	inconclusive: 16.4 µM [cytotoxic, single point]	
Cc1ccc(S(=O)(=O)/N=C(\N)Nc2nc(C)c3cc(C)ccc3n2)cc1	inconclusive: 22.4 µM [cytotoxic, single point]	
CCCn1c(-c2cccs2)nc2ccccc21	inconclusive: 29.1 µM [cytotoxic, single point]	
Cc1nnc(N/N=C/c2cccc(C(F)(F)F)c2)n1N	inconclusive: 32.6 µM [cytotoxic, single point]	
COc1cccc(/C=N/Nc2ncc(C(F)(F)F)cc2Cl)c1O	active: 9.2 µM	
Cc1ccc(/C=N/NC(=O)C2COc3ccccc3O2)s1 (centres undefined)	active: 1.84 µM	
Cc1ccccc1Nc1nnc(SCc2cc(=O)n3ccsc3n2)s1	inconclusive: 35.5 µM [cytotoxic, single point]	
CCOC(=O)c1ccc(S(=O)(=O)NNC(=O)COc2ccccc2C)cc1	inactive	
Cc1ccc(Nc2nc(Cl)nc(NC3CCCCC3)n2)cc1	inconclusive: 32.6 µM [cytotoxic, single point]	
COc1ccc(-c2nnn(CC(=O)c3c[nH]c4ccccc34)n2)cc1OC	inconclusive: 14.1 µM [cytotoxic, single point]	
O=C(Nc1ccc(-c2nc3ccccc3o2)cc1)C1CCCO1 (centres undefined)	inconclusive: 15.8 µM [cytotoxic, single point]	
COc1ccccc1NC(=O)c1ccc(-c2ccccc2[N+](=O)[O-])o1	inconclusive: 29.1 µM [cytotoxic, single point]	
CCOc1ccccc1C(=O)N[C@H](C(=O)Nc1nc2c(s1)CCCC2)C(C)C	inconclusive: 18.4 µM [cytotoxic, single point]	
Cc1ccc2cc(CN(Cc3ccco3)C(=O)c3cccs3)c(=O)[nH]c2c1	active: 5.8 µM	
Cn1cccc1/C=C1\SC(=Nc2ccc(O)cc2)NC1=O	active: 0.731 µM	
CCOC(=O)C1(CCOc2ccccc2)CCN(Cc2cccc(-n3cccn3)c2)CC1	inconclusive: 20.6 µM [cytotoxic, single point]	
CN(CC(=O)NC1CCCCCC1)S(=O)(=O)c1ccc(Br)cc1	inactive	
Cc1cc(C)c2c(=N)c3ccccc3n(CCCCCCCCn3c4ccccc4c(=N)c4c(C)cc(C)nc43)c2n1	inconclusive: 29.1 µM [cytotoxic, single point]	
CCOc1ccc(NC(=O)CN(C)C(=O)c2ccccc2OCc2cccc(C)c2)cc1OCC	inconclusive: 11.6 µM [cytotoxic, partial curve, poor fit]	
O=C(Nc1ccc(F)cc1)c1nc[nH]c1C(=O)Nc1ccc([N+](=O)[O-])cc1	inactive	

Compound	Potency	activity, negative = toxicity
CCN1CCc2c(C#N)c(NCc3ccccc3)nc(N(CC)CC)c2C1	inconclusive: 29.1 µM [cytotoxic, single point]	
Cc1ccc(S(=O)(=O)N2C[C@@]3(O)Cn4c(=O)ccc(=O)n4C[C@@]3(OC(=O)NCC3CCCCC3)C2)cc1		inconclusive: -3.14% [cytotoxic]
COc1cc(F)ccc1-c1cc(C(=O)NCc2cc(C(F)(F)F)cc(C(F)(F)F)c2)[nH]n1	inconclusive: 18.4 µM [rising, single point]	
O=C(NCc1ccccc1C(F)(F)F)C1CC(c2cccc(F)c2)=NO1 (centres undefined)	inactive	
CCOC(=O)[C@@H]1[C@H]2COc3ccccc3[C@@H]2N2C(=O)N(c3ccc(F)cc3)C(=O)[C@@]12C	inactive	
CCC(=O)Nc1ccc(-c2csc(C)n2)cc1		inconclusive: 22.3%
COc1cc2ccccc2cc1C(=O)N(CCN(C)C)c1nc2c(F)cccc2s1	inconclusive: 16.4 µM [cytotoxic, single point]	
Cc1cc(N/N=C/c2cccc(Cl)c2)nc(NCc2ccccc2)n1	inconclusive: 20.6 µM [cytotoxic, single point]	
CN(C)CCCN1c2ccccc2Sc2ccccc21	inconclusive: 15.8 µM [cytotoxic, single point] and inconclusive: 29.1 µM [cytotoxic, single point]	
O=C(Nc1ccc(Nc2ccccc2)cc1)c1c(F)c(F)c(F)c(F)c1F	inconclusive: 32.6 µM [cytotoxic, single point]	
CCCCn1c2ccc(F)cc2c2nnc(SCCN3CCOCC3)nc21	inconclusive: 6.51 µM [cytotoxic, partial curve]	
COc1cccc(NC(=O)C2(C)CCN2Cc2ccc3ccccc3c2)c1 (centres undefined)	inconclusive: 18.4 µM [cytotoxic, single point]	
O=C(CSc1cn(CCNC(=O)c2cccs2)c2ccccc12)NC1CCCC1	inactive	
CCC1CCCCN1S(=O)(=O)c1ccc(-n2cnnn2)c(C)c1 (centres undefined)	inactive	
CCOc1cccc(C(=O)NC(=S)Nc2ccc3c(c2)OCCO3)c1	inactive	
COc1cc(-c2c(CCO)sc3ccccc23)cc(OC)c1OC	inconclusive: 5.8 µM [cytotoxic, full curve]	
COc1cccc(-n2nnnc2SCC(=O)Nc2ccc3c(c2)OCCO3)c1	inconclusive: 28.2 µM [cytotoxic, single point]	
COc1ccc(C(=O)CC(Nc2ccc([N+](=O)[O-])cc2)c2ccc(Cl)cc2)cc1 (centres undefined)	active: 10 µM	
COC(=O)c1c(NC(=S)Nc2ccccc2Cl)sc(C)c1C	inconclusive: 15.8 µM [cytotoxic, single point]	
Cc1ccc(-c2cc(=O)c3cc(C)ccc3[nH]2)cc1	active: 20.6 µM	
CCOC(=O)CSc1nnc(Cn2nnc(-c3ccccc3)n2)n1CC		inconclusive: -18.7% [cytotoxic]
Cc1c(C(=O)Nc2ccccn2)oc2ccccc12	inconclusive: 35.5 µM [cytotoxic, single point]	
CCC(C)(C)C1CCC2(CC1)NC(=O)N(CC(=O)N(C)CC(=O)Nc1ccccc1C(F)(F)F)C2=O (centres undefined)	inconclusive: 25.9 µM [cytotoxic, single point]	
